About 1,200 (0.29%) of roughly 410,000 compounds were called active. This list was built around the results that the source calls inconclusive (neither active nor inactive); the mix of calls is not that of the screen. Calls follow the shape of the dose curve; as a rule, active = well fitted activation curve with a large enough effect; inconclusive = small, poorly fitted or top-dose-only effect; inactive = flat fitted curve, though single readings scatter. Where the call is inconclusive, the potency comes from a doubtful curve fit.
test: qHTS of Nrf2 Activators; settings: AREc32 ARE-luciferase reporter (MCF7-derived line), luminescence, 24 h; series mostly up to 46.1 µM; also: nearly all actives have a fitted effect of over 65% in size
In short: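 Steps: seed AREc32_Fluc cells (1000/well, 5% FBS OPTI-MEM); incubate overnight at 37 deg C; add 23 nL compound; incubate 24 hr; add Steady-Glo; hold 30 min RT; read luminescence.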
Potency is read from the fitted curve at half-maximal effect; tags tell the direction and shape of the fitted curve.

Potency, active:
CCC(=O)N1CCN(c2ccc(Cl)cc2NC(=O)c2ccc([N+](=O)[O-])o2)CC1 11.2 µM
CNc1ccc(-c2nc(-c3ccco3)no2)cc1[N+](=O)[O-] 1.41 µM
CCOC(=O)N1C/C(=C\c2ccccc2)C(=O)/C(=C/c2ccccc2)C1 11.2 µM
Oc1cccc2ccc(/C=C/c3cccs3)nc12 3.16 µM
C[C@@H](NC(=O)c1coc(=O)c(Br)c1)c1ccccc1 11.2 µM
Cc1c(-c2ccc(Br)cc2)nc2ccccn12 3.98 µM
CCCNC(=O)c1ccc(-n2c(-c3ccccc3)cc3c2CCCCC3)cc1 12.6 µM
COc1ccc(Cl)cc1C(=O)O/N=C(\N)c1ccc(Cl)cc1 7.94 µM
Nc1c(C(=O)c2ccc(Br)s2)oc2ccccc12 3.16 µM
O=C1N/C(=C\c2ccccc2)c2ccccc21 8.91 µM

Potency, inactive:
COc1ccc([C@@H]2COc3c(ccc4c3C=CC(C)(C)O4)C2)c(OC)c1
CCOC(=O)c1ccc(NC(=O)c2c(C)nn(-c3ccc(F)cc3)c2-n2cccc2)cc1
CC(=O)NC(CCc1ccc(Cl)c(Cl)c1)c1cccc(O)c(=O)c1 (centres undefined)
C#CCOc1ccc(/C=C2/C(=O)N(c3cccc(C(=O)O)c3)N=C2C)cc1OC
Cc1cccc(N2CCN(S(=O)(=O)c3ccc(-c4cc(C(F)(F)F)on4)s3)CC2)c1C
CCOCCn1c(CN(Cc2ccccc2)Cc2ccccc2)nc2c1c(=O)n(C)c(=O)n2C
CCC(=O)N(Cc1ccc(C)cc1)Cc1cc2cc3c(cc2[nH]c1=O)OCO3
CCCN1C(=O)CC(c2ccco2)Sc2ccccc21 (centres undefined)
O=C(C1=C[C@@H](C2CCCCC2)C[C@@H](OCc2ccc(CO)cc2)O1)N1CCN(Cc2ccc3c(c2)OCO3)CC1
Cc1ccc(S(=O)(=O)Nc2nc3ccccc3nc2NCc2ccco2)cc1C
CC(OC(=O)/C=C/c1ccc2ccccc2n1)C(=O)N(C)c1ccccc1 (centres undefined)
COc1ccccc1CNC(=O)CN(C)S(=O)(=O)c1cccc2cccnc12
O=C1C=CC2(C=C1)O[C@H](Cc1ccccc1)[C@@H](Cc1ccccc1)O2
COC(=O)c1cc2c(cc1NC(=O)c1cnn(-c3ccc(C)cc3)c1-n1cccc1)OCO2
CCO/N=C/C1=C(O)C(C(=O)OC)C(C)(C)CC1=O (centres undefined)
O=C(CN1CCN(Cc2ccc3c(c2)OCO3)CC1)Nc1ccc2c(c1)OCO2
O=C(O)c1ccccc1NS(=O)(=O)c1ccc(NN=Cc2ccccc2F)c([N+](=O)[O-])c1
Cc1ccc(C(C)C)c(OCC(=O)Nc2ccc(S(=O)(=O)Nc3onc(C)c3C)cc2)c1
Cc1cc([N+](=O)[O-])ccc1NC(=O)c1cc2ccccc2o1
Cn1ncc2c(N3CCN(c4ccc(Cl)c(Cl)c4)CC3)ncnc21
COc1ccc2oc(C(=O)OCC(=O)NCC3CCCO3)c(C)c2c1 (centres undefined)
COCC1CCN(C(=O)c2cc(COc3ccc4ncccc4c3)on2)CC1
COc1ccc(-n2ccnc(NCCc3ccccc3)c2=O)cc1OC

Potency, inconclusive:
O=C(CS(=O)(=O)c1ccccc1)c1cc2ccccc2oc1=O 35.5 µM [activator, single point]
O=C1NC(=S)N/C1=C\c1cccc([N+](=O)[O-])c1 11.2 µM [activator, partial curve, poor fit]
Cn1cccc1CC(=O)N/N=C/C=C/c1ccco1 11.2 µM [activator, partial curve, poor fit]
COc1ccc(/C=N/NC(=O)c2ccco2)cc1OCc1ccccc1 11.2 µM [activator, single point]
Oc1ccc2ccccc2c1CNc1ccccc1 22.4 µM [activator, single point]
O=C(NCCCN1CCOCC1)c1cc(-c2cccs2)on1 11.2 µM [activator, partial curve]
CN1CCN(C(=O)CCCN2C(=O)/C(=C/c3ccccc3)SC2=S)CC1 11.2 µM [activator, partial curve]
O=C1C(=C2CCc3ccccc32)Cc2ccccc21 0.794 µM [activator, full curve, poor fit]
Cc1ccc(OCC(=O)c2cc(C)c(C)cc2C)c([N+](=O)[O-])n1 31.6 µM [activator, single point]
O=C(c1cccc(Br)c1)c1coc2ccc(O)cc12 7.08 µM [activator, partial curve, poor fit]
O=C1Nc2cc3c(cc2C1=O)sc1ccccc13 12.6 µM [activator, single point]
N#Cc1nccc2ccc(OCc3ccc(Br)cc3)cc12 0.562 µM [activator, full curve, poor fit]
O=C(Nc1cccc(Cl)c1)c1cnn2cccnc12 12.6 µM [activator, single point]
Nc1ccc(-c2nc3c(Cl)c(N)ccc3[nH]2)cc1 10 µM [activator, partial curve, poor fit]
CN(C)CCC(=O)c1cccc(Br)c1 22.4 µM [activator, single point]
Cc1ccccc1-c1nc2cc(Cl)ccc2o1 15.8 µM [activator, single point]
Cc1ccc(C(=O)/C=C/c2c[nH]c3ccccc23)cc1 14.1 µM [activator, partial curve, poor fit]
CCCOC(=O)c1ccc(NC(=O)CCOc2ccccc2)cc1 31.6 µM [activator, single point]
COc1ccccc1N(O)C1CC(=O)N(c2ccc(F)cc2)C1=O (centres undefined) 17.8 µM [activator, single point]
O=C(CCC(=O)c1cccs1)c1cccs1 17.8 µM [activator, single point]
COc1ccc(Br)cc1C(C[N+](=O)[O-])c1c(N)n(C)c(=O)n(C)c1=O (centres undefined) 3.55 µM [activator, single point]
O=c1[nH]c(-c2ccccn2)nc2ccccc12 22.4 µM [activator, single point]
Cc1cc(O)c(C(=O)/C=C/c2c(F)c(F)c(F)c(F)c2F)c(=O)o1 3.16 µM [activator, partial curve, poor fit]
Oc1ccc2ccccc2c1C1Nc2cccc3cccc(c23)N1 15.8 µM [activator, partial curve, poor fit]
CCN(CC)c1ccc(C(=O)NNC(=O)CCl)cc1 20 µM [activator, single point]
O=C(Nc1cccc(F)c1)c1c(O)c2ccccc2[nH]c1=O 11.2 µM [activator, partial curve]
Cc1cc(C)c2c(c1)C(=O)/C(=C/c1ccc(C(=O)O)cc1)CC2 31.6 µM [activator, single point]
Fc1cccc(F)c1/C=N/Nc1ccccn1 2.82 µM [activator, full curve, poor fit]
CC(=O)O[C@]1(C(C)=O)CC[C@H]2[C@@H]3C=CC4=CC(=O)C=C[C@]4(C)[C@H]3CC[C@@]21C 17.8 µM [activator, single point]
O=c1cc(CCl)[nH]c2nc3ccccc3n12 22.4 µM [activator, single point]
C(=Cc1cnnc2ccccc12)c1ccccc1 3.16 µM [activator, full curve, poor fit]
COc1ccc(/C=C/C(=O)C2(O)CCCCC2)cc1 25.1 µM [activator, single point]
CC(C)(C)c1ccc2c(c1)OC(C(=O)N/N=C/c1ccc([N+](=O)[O-])o1)CO2 (centres undefined) 15.8 µM [activator, single point]
Cc1c(NC(=O)CSc2cccc3cccnc23)c(=O)n(-c2ccccc2)n1C 25.1 µM [activator, single point]
Cc1cc(SCC(=O)c2ccccc2)n2nc(C)nc2n1 20 µM [activator, single point]
COc1ccc(NC(=O)c2cc(-c3ccco3)nc3ccccc23)cc1S(=O)(=O)N1CCOCC1 22.4 µM [activator, single point]
Cc1cc2nc(-c3cccc(Cl)c3)c(Cc3cccc(Cl)c3)n2c(C)c1Br 20 µM [activator, single point]
Cc1cccnc1Nc1nc(-c2ccc(O)c(O)c2)cs1 15.8 µM [activator, single point]
COc1cc(-c2[nH]nc3c2C(c2ccco2)C(C#N)=C(N)O3)cc(OC)c1OC (centres undefined) 35.5 µM [activator, single point]
O=C(CCS(=O)(=O)c1ccccc1)N(CCCN1CCOCC1)c1nc2c(F)cccc2s1 15.8 µM [activator, single point]
Fc1ccc(Nc2nc3ccccc3n3cnnc23)c(F)c1 1.12 µM [activator, full curve, poor fit]
